Data: the supplement of paper PMC11417369
± gives the standard deviation of the averaged measurements. The list shows a part of the results.

These sequences were tested on PfAP2-EXP AP2 domain (GST-tagged) (assay: gcPBM binding intensity (ln(normalized median fluorescence intensity)); higher = stronger DNA binding).
Procedure, shortened: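 Each value is the highest Masliner-normalised natural-log median intensity across replicate spots of either orientation of a probe. The probes were primer-extended double-stranded 36-bp intergenic genomic sequences on an Agilent 4 × 180k array, alongside negative controls, exposed for 1 h to GST-tagged P. falciparum DNA-binding domains expressed in E. coli. Bound protein was picked up with Alexa488 anti-GST antibody and scanned at 488 nm.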

Sequence	gcPBM binding intensity (ln)
TACATACATACATACACACACACATATAAATACATA [CACACA_site4626]	9.205 ± 0.049
AATACATATATATATTGTACATATAGGGAAAAATTA [XGTACX_site2275]	8.75 ± 0.52
AAAATAAAATAATAAAATAAAATAATAATAAAATAA [TGCATGCA_negctrl_site401]	8.46 ± 0.33
AAAAAAAACGAACACACACACAAATATGTAAAAATA [CACACA_site6673]	8.71 ± 0.67
TAAAAACAAAAATGTTGTACATAATATAAAACAATT [XGTACX_site6380]	8.47 ± 0.33
CACACAATGGCTAGCTGTACATAATATATATCTACA [XGTACX_site4691]	8.71 ± 0.38
GAAAATAAAATAAATGCATGTAAATTTAATGTAATG [TGCATGCA_site996]	9.19 ± 0.42
TATATAAATATACAAACACACATACAAACATATATA [CACACA_site4754]	8.86 ± 0.48
AAAAAAAAAAAATGTGCATGCTATATATATATATAT [TGCATGCA_site727]	10.2 ± 0.16
TTAACAAATAGACACACACACACACGCAAAAAAAAA [CACACA_site6387]	8.74 ± 0.54
TTTTTTTTTCATTATTGTACATTGAAACTTCATTTT [XGTACX_site6041]	8.74 ± 0.37
ATATATATATTTACATGTACACATCTATATATAAAC [XGTACX_site5581]	9.445 ± 0.049
TTTTTTTTTTGATGTTGTACATATATATTATATAAT [XGTACX_site2765]	8.55 ± 0.4
GCTATTTATTTATATTGTACTTTTTTTTTTTTTTTT [XGTACX_site3624]	8.79 ± 0.35
TATTTTGTTCTTTCCACACACAAATACCTATCTTGT [CACACA_site7833]	9.03 ± 0.43
ATTCGTGAACTAGCCAAACACACGAAAAAAAAAAAA [CACACA_site3342]	8.41 ± 0.28
TTTTATTGATTATTCATAAATATGCTATTCATCTAA [CACACA_negctrl_site1084]	8.21 ± 0.31
ATGTAACATAGGAAATGTACATATAAATATAATTTA [XGTACX_site6452]	8.55 ± 0.34
TTTTTTTTTGGGGGTGCATGCAAGACATATATTTAA [TGCATGCA_site228]	10.43 ± 0.028
CATACATATATATATACACACATACATATATATACA [CACACA_site8165]	8.57 ± 0.33
TATTTTAATATTTGTAGTACAGATTGAAATGACGAA [XGTACX_site4805]	8.64 ± 0.34
AAAATGTATGGAATGCTCTTTTTTAAGTATTATATA [GTGCAC_negctrl_site175]	8.03 ± 0.28

Sequence	gcPBM binding intensity (ln)
ATATACGCATTAATAACACACAATATGATAACAAAT [CACACA_site3623]	8.74 ± 0.34
AATATAATCTTTCAAAAGAAAAAGACTTCATGAAAA [CACACA_negctrl_site1331]	8.35 ± 0.61
GTAGGTTTATATTGTAGTACATACAAACGTTAACAA [XGTACX_site5476]	8.85 ± 0.46
ACAAAATTGATATATGCACACATATATATATTAAAT [CACACA_site8152]	8.37 ± 0.3
ATACGTATTTTCTTTTGTACATATATATAAAATATT [XGTACX_site2675]	8.76 ± 0.57
TTTATTTATTATTAAAGTACTAAAATATATTATTAT [XGTACX_site4887]	8.18 ± 0.28
AATATTGCACCATTTTGTACATAATATATTCAAATA [XGTACX_site475]	8.89 ± 0.3
TATATTTATTAGTTTCGTACGTACAAAGTTATTTTT [XGTACX_site8847]	8.69 ± 0.36
ATATTAAAATTTTAATGTACATGCGTATGTAGGAAT [XGTACX_site1673]	9.12 ± 0.34
AACATATATTTTTAATGTACAAGGTTGTAAAGAACT [XGTACX_site1405]	8.74 ± 0.34
TATATTATATTTTTATGTACTTATTTATTTTGTTTC [XGTACX_site6145]	8.67 ± 0.33
ATTGTATTAAAATGCACACATATCAAGAGGAATTTT [CACACA_site283]	8.34 ± 0.35
ATGTATATATTCAATTGTACATGTTATATTTACACA [XGTACX_site1125]	8.47 ± 0.46
TGTAAAATATAAAAAGTGCATTTCTTTTAATATGAT	8.49 ± 0.24
AAAGAATAATTAAATACACACATATTGCAGTAAAAA [CACACA_site7201]	8.66 ± 0.38
CAATTGATATTGAAATGTACTTTTTAGATGAACCTT [XGTACX_site2354]	8.35 ± 0.49
TTAAATAATGCCACCAGTACCCACTGAAAGAAAAAA [XGTACX_site5013]	8.65 ± 0.47
TATATTAAAATTTACTGTACTTTTTTTATTTTAAAA [XGTACX_site4077]	8.41 ± 0.35
AAAGATATAAATTACTGTACTAATGAAATTGGTAAA [XGTACX_site3582]	8.62 ± 0.19
AATCCTTAAAATTAACGTACGAAATGAATTTATTAA [XGTACX_site956]	8.45 ± 0.42
TGGAGGTCATTACACAGTACCCAGGAAATCTACGGA [XGTACX_site2004]	8.66 ± 0.51
AAACCGTGGGAGCACACACACACACCCACCCATATA [CACACA_site332]	8.57 ± 0.57

Sequence	gcPBM binding intensity (ln)
ACAAAACAAAACAAAAGTACACAAAATAAATAAGAT [XGTACX_site6497]	9.01 ± 0.47
ATAATAACAAAATATTAACACACATAACATATTATA [CACACA_site8906]	8.48 ± 0.26
TTCTGTCAATATGCTTGTACGAAATATTTCGTAATT [XGTACX_site3182]	8.87 ± 0.4
AAAATAAACCCAGACACACTCATTAAAAAATATCAT [CACACA_site5903]	8.46 ± 0.39
TATTAATCCTTTTGCTTGGAAACATTCAAAAGGAAG [CACACA_negctrl_site1129]	8.25 ± 0.35
ATAAATAAATACTAGGCACACACACCGATATATATA [CACACA_site8649]	8.85 ± 0.38
ATATATATAAAATATGGTACAGAAAAAGTCTTGTTT [XGTACX_site8868]	9.23 ± 0.52
AATATAAAAAATAATACACACACATGGCGACAAAAT [CACACA_site8765]	9.11 ± 0.51
ATGTAAGTAATTATCTGTACACATAATATATATATA [XGTACX_site2618]	9.62 ± 0.13
TTTGAGTTACTATTCACACAAAATGGATAAATTAAT [CACACA_site5626]	8.41 ± 0.42
CACATAAATAATTAAACACACATTGTTCTAGACAAT [CACACA_site2378]	8.44 ± 0.4
TAGTTTTGAAAACAAACACACAAAAAAAAAAAAAAA [CACACA_site1692]	8.14 ± 0.39
TATATAGGTATATATACACACAACGGTTATAAATAT [CACACA_site4759]	8.79 ± 0.48
TATAAAGACACGAAAACACACATATGTAAATATATA [CACACA_site8056]	8.92 ± 0.59
AGGATAAAAGTTATGGTGCATTAACCTATTTAAATA	9.02 ± 0.17
TACATATTACTATTCAGTACATATTTTTTTTTCATT [XGTACX_site7468]	8.4 ± 0.26
AATTTTATTACTTTTACACACCTATATATCATTCAT [CACACA_site7525]	8.78 ± 0.49
AAGAATAAGGAAAAATGTACAGAATGCACATATGAA [XGTACX_site4705]	8.67 ± 0.27
TAGGGATTATACCACACACACATACACATAAATATA [CACACA_site3178]	8.79 ± 0.42
ACCTTAAATAATACATGTACAAAAAAATTTATAATA [XGTACX_site1043]	9.64 ± 0.58
TTCTTTTTTTAAAGAAGTACTATATTTTAAATTATA [XGTACX_site5059]	8.12 ± 0.21
TTTAAAATAAATTAATAGAACAAAAATAAAATGATT [GTGCAC_negctrl_site375]	8.62 ± 0.49

Sequence	gcPBM binding intensity (ln)
ATGTATATATATATATGTACATATTTTTTATATGTA [XGTACX_site441]	8.29 ± 0.25
AAAAAAAATACAAAAAGTACAAAAAATACAAAAAAA [XGTACX_site8844]	8.52 ± 0.43
TATAAAAAAATAAAAGGAATATACTTGCAAAGGGTA [CACACA_negctrl_site1438]	9.02 ± 0.46
AACAATATATTGATATTATTTTAAGTGATTATATAT [XGTACX_negctrl_site205]	8.15 ± 0.35
AATAATAAAAAAAGTGCACACACATAATATATATAT [CACACA_site9100]	9.47 ± 0.099
TTTTTTTTTGTTATGTTGCACTTTGCCATATTATTA [GTGCAC_site9844]	8.88 ± 0.34
TTTCAAATGATTAAGTGTACATGTTTGCTTGCTCTT [XGTACX_site4697]	8.64 ± 0.54
TGATATTATAGATATACACACATGTATGTATTTATA [CACACA_site6758]	8.35 ± 0.49
AAATTTAGTAAAAAATGTACGTAAAATGTAAAATAT [XGTACX_site1314]	8.96 ± 0.38
AAGGTAAACGGACACACACACATACAAAAAAAAAAA [CACACA_site5961]	8.7 ± 0.48
ATACTAACATTTTTTTGTACATATAACTATAAAATA [XGTACX_site1033]	8.61 ± 0.3
AATGATTTTGATTAACGTACGTACAAATATATATAT [XGTACX_site6604]	9.31 ± 0.057
TATATATTATATAAATAAATAAATATATATATTTAT [TGCATGCA_negctrl_site270]	8.12 ± 0.4
TTATTAAATATAAATATGTATCTTTTATGTTATATT [CACACA_negctrl_site306]	8.15 ± 0.26
AGACCTATGATATATACACACATATAAATAAATATA [CACACA_site6725]	8.45 ± 0.57
AATGTTAAACTATGATGTACGGTTAAAAATATAATT [XGTACX_site893]	8.66 ± 0.45
TAAATCCGCAGGCACACACACATATTAATAAAAAAA [CACACA_site3991]	8.59 ± 0.83
TATTTTACGACATACCAAAAAAAAAAAAAAAAAATA [CACACA_negctrl_site1254]	8.13 ± 0.49
AAAAAAAAAAGACACACACACATAGACCTCCAATAG [CACACA_site7646]	8.7 ± 0.54
TCCTCATTTTATCATACACACTTGTTTATATGTGTG [CACACA_site6548]	8.66 ± 0.44
TATATATATATAATTTGTACACACAAATATGCATAT [XGTACX_site7297]	9.88 ± 0.18
ATATATAATAATTGTAGTACAATTAATAAATAAAAT [XGTACX_site3840]	8.61 ± 0.4
